# Assay results as given in the antibiotic and cytotoxicity screens of Wong et al. (2023).
# This is one part of the list.
# How the values were obtained:
# HSkMC = human skeletal muscle cells; experiment: cytotoxicity call (relative viability < 0.9); settings: 10 µM
# HepG2 = experiment: cytotoxicity call (relative viability < 0.9); settings: 10 µM
# S. aureus RN4220 = experiment: growth inhibition call (relative growth <= 0.2); settings: 50 µM
Structure (SMILES),cytotoxicity call (HSkMC),cytotoxicity call (HepG2),growth inhibition call (S. aureus RN4220)
CCN1C(=O)C(N=O)N(CC)C1=S (stereo unspecified),inactive,inactive,inactive
COc1ccc(NC(=O)Nc2ccc3c(c2)C(=O)N([C@H](C)CO)C[C@H](C)[C@H](CN(C)Cc2ccc(Cl)c(Cl)c2)O3)cc1,inactive,active,inactive
C[C@H]1CCCCO[C@@H](CN(C)C(=O)Nc2cccc3ccccc23)[C@@H](C)CN([C@@H](C)CO)C(=O)c2cc(NS(=O)(=O)c3cccs3)ccc2O1,inactive,inactive,inactive
COc1ccc(CN(C)C[C@@H]2OCCCC[C@@H](C)Oc3ccc(NS(=O)(=O)c4cccs4)cc3C(=O)N([C@H](C)CO)C[C@H]2C)cc1,inactive,inactive,inactive
C[C@H]1CCCCO[C@H](CN(C)S(=O)(=O)c2ccc(F)cc2)[C@@H](C)CN([C@@H](C)CO)C(=O)c2cc(NC(=O)Nc3ccc(C(F)(F)F)cc3)ccc2O1,inactive,inactive,inactive
Cc1ccc(S(=O)(=O)Nc2ccc3c(c2)C(=O)N([C@@H](C)CO)C[C@H](C)[C@@H](CN(C)C(=O)c2ccccc2)OCCCC[C@@H](C)O3)cc1,inactive,inactive,inactive
Cc1ccc(S(=O)(=O)N(C)C[C@@H]2OCCCC[C@H](C)Oc3ccc(NS(=O)(=O)c4ccc(Cl)cc4)cc3C(=O)N([C@H](C)CO)C[C@H]2C)cc1,inactive,active,inactive
C[C@@H]1CN([C@@H](C)CO)S(=O)(=O)c2ccc(C#Cc3ccc(F)cc3)cc2O[C@H]1CN(C)C(=O)CN(C)C,inactive,inactive,inactive
Cn1cnc(S(=O)(=O)N2C[C@@H](O)COC[C@@H]3O[C@H](CC(=O)NC4CCCC4)CC[C@H]32)c1,inactive,inactive,inactive
Cc1ccc(S(=O)(=O)N(C)C[C@@H]2Oc3ncc(C#Cc4cccc(F)c4)cc3C(=O)N([C@H](C)CO)C[C@@H]2C)cc1,inactive,active,inactive
COc1ccc(S(=O)(=O)Nc2ccc3c(c2)CC(=O)N([C@H](C)CO)C[C@@H](C)[C@H](CN(C)Cc2ccc(Oc4ccccc4)cc2)O3)cc1,active,active,inactive
COc1ccc(CN(C)C[C@@H]2OCCCC[C@H](C)Oc3ccc(NC(=O)Nc4ccccc4)cc3C(=O)N([C@H](C)CO)C[C@H]2C)cc1,inactive,inactive,inactive
